# Laboratory results taken from PubChem BioAssay AID1466 (National Center for Advancing Translational Sciences (NCATS), 2008).
# Among all 200,000 compounds or so, about 10 (0.005%) were called active. Inconclusive results, whose numbers are uncertain, are shown with a selection of clear calls. Calls come from the whole dose curve; as a rule, active = well fitted inhibition curve with a large enough effect; inconclusive = small, poorly fitted or top-dose-only effect, or effect the other way, or another doubt; inactive = no such curve, though single readings can be large or run the other way. No potency is given beside an inconclusive call; the fits are too rough.
# Molecular target: Lysosomal alpha-glucosidase (Homo sapiens) (UniProt P10253)
# Assay: qHTS Assay for Inhibitors of Human alpha-Glucosidase as a Potential Chaperone Treatment of Pompe Disease;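 for activity change, negative = inhibition: plate controls were uninhibited enzyme wells for no effect and no-enzyme background for full effect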
# Settings: purified human GAA, 4-MU-alpha-glucoside fluorescence; activity change, negative = inhibition: at 76.9 µM (top of the series) unless noted
# How it was run: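 Activity normalized between no-enzyme (basal) and enzyme-only wells. Conditions: 4 nM human enzyme, 400 uM fluorogenic substrate, citrate/phosphate pH 5.0 with Tween-20, 20 min room temperature, compounds up to 77 uM.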
# Potency is the fitted concentration of half-maximal effect; tags give direction and shape of the fitted curve.
SMILES,Potency,"activity change, negative = inhibition"
CCOC(=O)c1cnn(-c2nc(-c3cccc(F)c3)cs2)c1C(F)(F)F,"inconclusive [inhibitor, single point]",
CCCn1c(C)cc(=O)c2cc(NC(=O)c3cnccn3)ccc21,"inconclusive [inhibitor, partial curve]",
CCCn1c(C)cc(/C=C(\C#N)C(=O)OCC(=O)NC(=O)NC(C)(C)C)c1C,"inconclusive [inhibitor, partial curve]",
Cc1cccc(/C=N\NC(=O)c2sccc2-n2cccc2)c1,"inconclusive [inhibitor, partial curve]",
O=C(NCc1ccco1)c1cnn2cccnc12,,inconclusive: 15.2% [activator]
Cc1cc(C)nc(N(C#N)CC(=O)Nc2ccccc2)n1,"inconclusive [inhibitor, single point]",
CC1CCc2c(nc3ncnn3c2N2CC(C)OC(C)C2)C1 (stereo not given),"inconclusive [inhibitor, full curve, poor fit]",
Cc1ncoc1C(=O)N1CCCC(C(=O)c2ccc(C(F)(F)F)cc2)C1 (stereo not given),,inconclusive: 16.4% [activator]
COc1ccc(CC(=O)N2CCN=C2SC)cc1OC,,inconclusive: 15.2% [activator]
CN1CCN(c2ccc(S(=O)(=O)N3CCCCC3)cc2NC(=O)c2ccc(F)cc2F)CC1,"inconclusive [inhibitor, partial curve]",
CCOc1ccc(C2c3c(oc4ccccc4c3=O)C(=O)N2CCCN2CCOCC2)cc1 (stereo not given),,inconclusive: -15.9% [inhibitor]
CCC(=O)c1c(NC(CC)CO)cc(C)oc1=O (stereo not given),,inconclusive: -18.7% [inhibitor]
O=c1[nH]c2cc(Cl)cc(Cl)c2[nH]c1=O,"inconclusive [inhibitor, single point]",
Cc1cc(=O)oc2c(CN3CCN(C)CC3)c(O)c(Cl)cc12,"inconclusive [activator, partial curve]",
O=c1cc(-c2ccc(O)cc2)oc2c([C@@H]3O[C@H](CO)[C@@H](O)[C@H](O)[C@H]3O)c(O)c([C@@H]3O[C@H](CO)[C@@H](O)[C@H](O)[C@H]3O)c(O)c12,"inconclusive [inhibitor, partial curve]",
CCN(CC)c1ccc2cc(S(=O)(=O)c3ccc(Cl)cc3)c(=O)oc2c1,"inconclusive [inhibitor, single point]",
COc1ccc(N(CC(=O)N2CCCCC2)S(=O)(=O)c2c(C)nn(C)c2C)cc1,"inconclusive [inhibitor, single point]",
O=C1CCCC2=C1C(c1ccco1)Nc1ccc3ccccc3c12 (stereo not given),,inconclusive: 16.7% [activator]
CN(C)CCCNS(=O)(=O)c1cc(Cl)ccc1Cl,"inconclusive [inhibitor, single point]",
Cc1ccccc1C(O)c1cccnc1 (stereo not given),"inconclusive [inhibitor, single point]",
O=C(OCC(=O)N1CCCC1)c1cncc(Br)c1,"inconclusive [inhibitor, single point]",
CCCS(=O)(=O)N1CCC(C(=O)NCCc2ccc(OC)c(OC)c2)CC1,"inconclusive [inhibitor, single point]",

SMILES,Potency,"activity change, negative = inhibition"
CCOC(=O)N1CCN(CC(=O)Nc2cc3c(cc2C(C)=O)OCO3)CC1,"inconclusive [inhibitor, full curve, poor fit]",
C/C=C(/C(=C/C)c1ccc(O)cc1)c1ccc(O)cc1,"inconclusive [inhibitor, partial curve]",
CCn1cc(CN2CCc3c([nH]c4ccccc34)C2c2cccc(OC)c2OC)c(C)n1 (stereo not given),"inconclusive [inhibitor, partial curve]",
COC(=O)C1=CNC=C(C(=O)OC)C1c1ccc(Cl)cc1,"inconclusive [activator, partial curve]",
Cc1cccc(/C=C/c2nc3ccccc3c(=O)[nH]2)c1,"inconclusive [activator, single point]",
Cc1cccc(S(=O)(=O)Nc2nc3ccccc3nc2NCc2ccco2)c1,"inconclusive [inhibitor, single point]",
CCCCn1c(CN2CCN(c3cccc(Cl)c3)CC2)nc2c1c(=O)n(C)c(=O)n2C,"inconclusive [inhibitor, single point]",
NC(=O)c1cc(N=Nc2c(N)[nH]n(-c3c(Cl)cc(Cl)cc3Cl)c2=O)ccc1Cl,,inconclusive: 9.23% [activator]
COC(=O)c1ccc(/C=C(\C#N)c2ccccn2)cc1,,inconclusive: -15.2% [inhibitor]
CCC(Sc1nc(C)cc(=O)[nH]1)C(=O)Nc1nc(-c2ccccc2)cs1 (stereo not given),"inconclusive [inhibitor, single point]",
COCCN(CCOC)c1cc(C)c(C#N)c2nc3ccccc3n12,"inconclusive [activator, single point]",
CC1(C)Cc2c(C#N)c(N3CCN(C(=O)c4ccccc4)CC3)nc(Cc3ccccc3)c2CO1,"inconclusive [inhibitor, full curve]",
COCCn1c(N)c(C#N)c2nc3ccccc3nc21,"inconclusive [activator, partial curve]",
CC1(C)Cc2nc(N3CCOCC3)c(C#N)cc2CO1,,inconclusive: 28% [activator]
Cc1nc(-c2ccc(C#N)cc2)cs1,"inconclusive [inhibitor, partial curve]",
Cc1ccc(C2=NN(C(=O)c3cccs3)C(c3ccccc3O)C2)cc1 (stereo not given),"inconclusive [activator, partial curve, poor fit]",
CCNc1nc(Cl)nc(NNC(=O)C(C)Oc2ccccc2)n1 (stereo not given),"inconclusive [inhibitor, single point]",
CNC(=S)N/N=C(\C)c1ccc(-n2ccnc2)cc1,"inconclusive [inhibitor, single point]",
CC(C)c1cc(NCCCN2CCOCC2)n2c(nc3ccccc32)c1C#N,"inconclusive [activator, partial curve]",
Cc1cc(N(CCO)CCO)ccc1C(c1ccc(N(CCO)CCO)cc1C)c1ccccc1Cl,"inconclusive [inhibitor, single point]",
CCC1S/C(=C(\C#N)C(=O)NCc2ccco2)N(c2ccc(F)cc2)C1=O (stereo not given),"inconclusive [inhibitor, single point]",
CCS(=O)(=O)Nc1ccc(C2=NN(C(C)=O)C(c3cccs3)C2)cc1 (stereo not given),"inconclusive [activator, partial curve]",

SMILES,Potency,"activity change, negative = inhibition"
CSc1nc(NCC(C)C)c2c3c(sc2n1)CN(C)CC3,"inconclusive [activator, partial curve]",
C/C(N)=C(/C#N)C(=O)CSc1ccc2c(c1)OCCO2,,inactive: 1.64%
Cc1cccc(C)c1NC(=O)CSCC(=O)O,,inactive: -4.17%
CCCCNC(=O)CCC(=O)Nc1ccc2nc(N3CCOCC3)cc(C)c2c1,"inconclusive [activator, single point]",
O=C1c2ccccc2NC(c2ccco2)N1NS(=O)(=O)c1ccccc1 (stereo not given),"inconclusive [inhibitor, full curve, poor fit]",
Cc1ccccc1Nc1nc(N)c2ccccc2n1,,inconclusive: 13.3% [activator]
CC(=O)Nc1ccc(S(=O)(=O)Nc2ccc3c(c2)C(=O)OC3)cc1,"inconclusive [inhibitor, full curve, poor fit]",
Cn1c(SCC(=O)NCc2ccco2)nnc1-c1ccc(S(=O)(=O)N2CCOCC2)cc1,"inconclusive [inhibitor, full curve, poor fit]",
COc1ccc(S(=O)(=O)N2CCC(O)(c3ccc(Cl)cc3)CC2)cc1,,inconclusive: -16.2% [inhibitor]
S=C(NCCN1CCOCC1)Nc1ccc(Cl)c(Cl)c1,"inconclusive [activator, full curve, poor fit]",
CC1(C)CC(NCc2ccncc2)CC(C)(C)N1,,inconclusive: 13.4% [activator]
CCN1CCN(C(c2cccs2)C(C)NC(=O)c2cccc(OC)c2OC)CC1 (stereo not given),"inconclusive [inhibitor, single point]",
CCOc1ccc(C(c2c(NC(=O)c3ccccc3)sc(C)c2C)N2CCN(C)CC2)cc1 (stereo not given),"inconclusive [inhibitor, partial curve]",
Nc1ccc2c(c1)C(=O)N(CCCC(=O)O)C2=O,"inconclusive [inhibitor, full curve, poor fit]",
Cc1ncc(CO)c(/C=N/NC(=S)Nc2ccc(Cl)c(Cl)c2)c1O,,inconclusive: 20.5% [activator]
Cc1ccc(S(=O)(=O)Nc2ccc(-c3nnc(SCC#N)n3C)cc2)cc1,"inconclusive [inhibitor, single point]",
N#CC1=C(N)Oc2cc(O)ccc2C1c1cccnc1 (stereo not given),,inactive: -5.44%
CC/C(C)=N/NC(=O)c1[nH]c2ccc(C)cc2c1-c1ccccc1,,inconclusive: 15.3% [activator]
S=C(NC1CCCCC1)N1CCN(Cc2ccccc2)CC1,"inconclusive [inhibitor, single point]",
CCc1cc(=O)oc2c(C)c(O)c(CN3CCCCC3)cc12,"inconclusive [activator, partial curve]",
COc1ccc(CCNC(=O)c2ccc(SC)cc2OC)cc1,"inconclusive [inhibitor, full curve]",
